Test results from the supplement of paper PMC8512760.
The list shows a part of the results. Many values rest on one well or one pass, so single values are uncertain.

System: MDA-468
Experiment: cell viability relative to vehicle (% of vehicle); basal-like triple-negative breast cancer lines; higher = less cytotoxic
Settings: 10 µM; 72 h
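Further: stably firefly luciferase-GFP labeled cells in 96-well plates, viability read as luciferase photon flux after d-luciferin addition, treated wells normalized to vehicle wells, single-dose high-throughput screen.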

SMILES	cell viability
Clc1ccc2c(c1)CCc1cccnc1C2=C1CCNCC1 [Desloratadine]	87.8
CC(CN1CC(=O)NC(=O)C1)N1CC(=O)NC(=O)C1.Cl (stereo not given) [Dexrazoxane HCl (ICRF-187, ADR-529)]	85.7
CC12CCC3c4ccc(O)cc4CCC3C1CCC2=O (stereo not given) [Estrone]	137
S=c1nc[nH]c2nc[nH]c12 [Mercaptopurine (6-MP)]	74.5
Cl.Cl.OCCOCCN1CCN(C(c2ccccc2)c2ccc(Cl)cc2)CC1 (stereo not given) [Hydroxyzine 2HCl]	109
CC(C)C(N)C(=O)OCC(CO)OCn1cnc2c(=O)nc(N)[nH]c21.Cl (stereo not given) [Valganciclovir HCl]	111
Cl.OC(CNCC(O)C1CCc2cc(F)ccc2O1)C1CCc2cc(F)ccc2O1 (stereo not given) [Nebivolol]	87.3
COc1ccc2cccc(CCNC(C)=O)c2c1 [Agomelatine]	115
Cc1ccc(-c2cc(C(F)(F)F)nn2-c2ccc(S(N)(=O)=O)cc2)cc1 [Celecoxib]	79.5
O=C([O-])Cc1ccccc1Nc1c(Cl)cccc1Cl.[K+] [Diclofenac Potassium]	95.8
Cc1noc(NS(=O)(=O)c2ccc(N)cc2)c1C [Sulfisoxazole]	86.2
CN(C)C(=N)N=C(N)N.Cl [Metformin HCl]	94.6
CC1(COc2ccc3c(c2)ncn3-c2ccc3cccc(N4CCC(N)CC4)c3n2)COC1	30.4
FC(F)(F)c1ccc(C=Cc2nc(COc3ccc(CCCCn4ccnn4)cc3)co2)cc1 [Mubritinib (TAK 165)]	130
CCCNC1CCc2nc(N)sc2C1.Cl.Cl.O (stereo not given) [Pramipexole 2HCl Monohydrate]	102
CO[C@H]1/C=C/O[C@@]2(C)Oc3c(C)c(O)c4c(O)c(c5c(nc6cc(C)ccn65)c4c3C2=O)NC(=O)/C(C)=C\C=C\[C@H](C)[C@H](O)[C@@H](C)[C@H](O)[C@@H](C)[C@H](OC(C)=O)[C@@H]1C [Rifaximin (Xifaxan)]	107
OCCOCCN1CCN(C2=Nc3ccccc3Sc3ccccc32)CC1 [Quetiapine]	97.2
CC(=O)Nc1ccc(O)cc1 [Acetaminophen]	118
COc1ccc(C2CNC(=O)C2)cc1OC1CCCC1 (stereo not given) [Rolipram]	94.4
CN(C)CCC=C1c2ccccc2COc2ccc(CC(=O)O)cc21.Cl [Olopatadine HCl]	99

SMILES	cell viability
COc1c(N2CCNC(C)C2)c(F)cc2c(=O)c(C(=O)O)cn(C3CC3)c12 (stereo not given) [Gatifloxacin]	98.8
Nc1ncn(C2CC(O)C(CO)O2)c(=O)n1 (stereo not given)	68.3
CCCCOc1cc(C(=O)OCCN(CC)CC)ccc1N.Cl [Oxybuprocaine HCl]	72.3
Cc1cc(C)nc(NS(=O)(=O)c2ccc(N)cc2)n1 [Sulfamethazine]	103
CCN(CC)CC#CCOC(=O)C(O)(c1ccccc1)C1CCCCC1 (stereo not given) [Oxybutynin]	123
CC1(C)CCC(c2ccc(Cl)cc2)=C(CN2CCN(c3ccc(C(=O)NS(=O)(=O)c4ccc(NC(CCN5CCOCC5)CSc5ccccc5)c(S(=O)(=O)C(F)(F)F)c4)cc3)CC2)C1 (stereo not given) [ABT-263 (Navitoclax)]	62.9
CC(C)(C)NCC(O)COc1nsnc1N1CCOCC1.O=C(O)C=CC(=O)O (stereo not given) [Timolol Maleate]	109
CN1CCCC1c1cccnc1.O=C(O)C(O)C(O)C(=O)O.O=C(O)C(O)C(O)C(=O)O (stereo not given) [Nicotine Difartrate]	118
CO/N=C(\C(=O)N[C@@H]1C(=O)N2C(C(=O)[O-])=C(COC(C)=O)CS[C@H]12)c1csc(N)n1.[Na+] [Cefotaxime (sodium salt)]	103
Cc1nc2c([nH]1)CCN(C(=O)c1ccc(NC(=O)c3ccccc3-c3ccccc3)cc1)c1ccccc1-2.Cl [Conivaptan HCl]	96.7
Cc1cncc(CN2CCC(=C3c4ccc(Cl)cc4CCc4cccnc43)CC2)c1.O=C(O)C=CC(=O)O [Rupatadine Fumarate]	110
Cn1c([N+](=O)[O-])cnc1COC(N)=O [Ronidazole]	101
COc1cc(NS(=O)(=O)c2ccc(N)cc2)nc(OC)n1 [Sulfadimethoxine]	129
O=c1nc[nH]c2c1ncn2C1CCC(CO)O1 (stereo not given) [Didanosine]	101
C[C@@H]1C\C=C/C=C\C=C/C=C\[C@H](O[C@@H]2O[C@H](C)[C@@H](O)[C@H](N)[C@@H]2O)C[C@@H]2O[C@](O)(C[C@@H](O)C[C@H]3O[C@@H]3/C=C\C(=O)O1)C[C@H](O)[C@H]2C(=O)O [Natamycin]	87.4
Cc1cc(=O)n(-c2ccccc2)n1C [Antipyrine]	112
CC1c2cccc(O)c2C(O)=C2C(=O)C3(O)C(O)=C(C(N)=O)C(=O)C(N(C)C)C3C(O)C21.Cl (stereo not given) [Doxycycline HCl]	98.9
Cc1cnc(C(=O)O)c[n+]1[O-] [Acipimox]	88.4
OC(Cn1cncn1)(Cn1cncn1)c1ccc(F)cc1F [Fluconazole hydrate]	117
C=C[C@@H]1C[N@@]2CC[C@H]1C[C@@H]2[C@H](O)c1ccnc2ccc(OC)cc12 [Quinidine]	119
